Laboratory results from the supplement of paper PMC3334620.
In all, about 33,000 sequences were measured (“E-score (-0.5 to 0.5)”: median about -0.016, highest 2% from about 0.32 on). Some of the results follow.

These sequences were tested against T1, Stp1 (UniProt B3LFK1) (assay: PBM E-score (8-mer binding enrichment) (E-score (-0.5 to 0.5)); higher = stronger / more preferred TF binding; most listed sequences are background and not binding sites). Conditions: protein concentration: 200 nM; construct: GST-full length.
T1 sequence: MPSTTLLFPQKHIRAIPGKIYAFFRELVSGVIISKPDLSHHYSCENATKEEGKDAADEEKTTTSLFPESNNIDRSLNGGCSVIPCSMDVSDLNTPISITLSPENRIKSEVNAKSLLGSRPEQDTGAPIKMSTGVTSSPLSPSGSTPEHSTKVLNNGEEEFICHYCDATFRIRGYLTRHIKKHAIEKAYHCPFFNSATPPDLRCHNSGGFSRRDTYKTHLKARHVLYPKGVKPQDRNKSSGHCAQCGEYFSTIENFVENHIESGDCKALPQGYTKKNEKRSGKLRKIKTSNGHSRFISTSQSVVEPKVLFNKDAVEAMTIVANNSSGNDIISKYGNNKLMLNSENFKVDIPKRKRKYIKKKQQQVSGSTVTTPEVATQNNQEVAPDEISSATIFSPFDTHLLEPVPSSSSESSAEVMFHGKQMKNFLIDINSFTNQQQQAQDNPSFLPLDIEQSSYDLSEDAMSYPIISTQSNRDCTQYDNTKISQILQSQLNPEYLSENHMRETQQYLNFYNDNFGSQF
Method in brief: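 Masliner-normalised scans of fluorescent anti-GST signal were the basis for scoring. That signal came from GST-tagged yeast transcription factors applied at about 100-200 nM to double-stranded universal all-10-mer Agilent arrays on fresh or once-stripped slides. Each ungapped eight-base word, pooled with its reverse complement, received an E-score from the Universal PBM Analysis Suite.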

| Sequence | PBM E-score |
| --- | --- |
| ATTGGAGC | 0.0604 |
| CGCCGTTA | 0.381 |
| GGTTCCCA | -0.174 |
| GGAATGAC | -0.157 |
| AAGTCACA | -0.0584 |
| CAAACGCC | 0.258 |
| CAGACGAC | -0.28 |
| ACGTTAGA | 0.108 |
| GTTTAACA | -0.0642 |
| AGTACCTC | -0.0436 |
| GTGCCTTA | 0.367 |
| CCTCCACA | -0.0389 |
| CAAGTTGC | 0.00105 |
| GAACAGGA | -0.158 |
| ATGTCTAA | 0.0582 |
| AGTGATAC | -6e-05 |
| GATACGAC | 0.0153 |
| GGCTTCCC | -0.0604 |
| AGGTCGAT | 0.136 |
| AAGAATCT | -0.0783 |
| GGGCCAGA | -0.237 |
| GACACCCA | -0.262 |
| ACGTTCAT | -0.204 |
| GATATCGA | 0.0427 |

| Sequence | PBM E-score |
| --- | --- |
| ATCCGCCA | -0.0958 |
| GAACCAAC | -0.0803 |
| GATCTCCA | -0.0306 |
| ACTCTTAG | -0.0503 |
| ATCGGCCG | 0.15 |
| CAATTAGG | 0.104 |
| CTCCAATA | 0.118 |
| ACAAAGGA | 0.0216 |
| AGACGTCG | -0.186 |
| GACGGTAA | -0.0159 |
| CACCTATA | -0.114 |
| TACACTGA | -0.0513 |
| GCCCTGAC | -0.0597 |
| ACAGACTG | -0.204 |
| ATGATTAA | 0.222 |
| TCACACGA | 0.128 |
| AGTATCGG | 0.0387 |
| ACATTCGT | -0.134 |
| GAAGCGAA | -0.00767 |
| AACGGGGT | -0.267 |
| AGGGATCA | -0.15 |
| ATTAATTC | 0.3 |
| AGCAACCC | -0.306 |
| CACTGAGC | -0.0751 |

| Sequence | PBM E-score |
| --- | --- |
| GTGAGAAC | -0.0964 |
| CCCTCAAA | -0.0702 |
| GTAAAGAC | 0.0739 |
| TAGCCGCA | 0.348 |
| GTCATGGA | -0.188 |
| AAAGGACA | -0.0327 |
| ACAAATGC | 0.155 |
| CGGAAACC | -0.275 |
| AGAAAACA | 0.12 |
| TCCCAGCA | -0.159 |
| ATTCATTA | 0.254 |
| CATTGTGG | -0.0605 |
| GACCTCAC | 0.00128 |
| CATCGTTA | -0.161 |
| AAGCCGTG | 0.419 |
| CGGGTTTC | 0.148 |
| AACAGATT | -0.0644 |
| ATATCCTG | -0.0264 |
| CGGTTAAC | -0.183 |
| AGGCCTAC | -0.0947 |
| CGGTATAA | 0.00498 |
| CGTTAAGC | 0.0167 |
| AAAACACT | 0.141 |
| CTTCACTC | -0.132 |

| Sequence | PBM E-score |
| --- | --- |
| GGCTTACC | -0.155 |
| CTGTTGCA | 0.0698 |
| AGACTGGC | -0.108 |
| ACCTCTTC | -0.0189 |
| GCTATCTA | -0.246 |
| GAGGGCCA | -0.273 |
| AAAACGCC | 0.386 |
| AGGCATCG | 0.348 |
| ACCTGCGC | 0.064 |
| AGGGACGC | -0.103 |
| AGAACGTC | -0.075 |
| GATTCTCA | 0.0487 |
| AGGCCCTC | -0.337 |
| AACGAGAT | -0.0577 |
| CCAAGTAC | -0.0924 |
| GTACTGGA | -0.0214 |
| AGTCCCGC | -0.219 |
| ACGTTGGA | -0.0682 |
| CAGCCTTC | -0.091 |
| CCCTAACA | 0.152 |
| GAACGTAA | 0.0655 |
| GAGTCTGC | -0.195 |
